From paper PMC4336329 (PLoS ONE, 2015)
The whole screen tested about 310,000 compounds, of which about 2,200 (0.71%) showed an effect of 50% or more. Effects have a minus sign here. The list shows a part of the results.

What follows are molecules tested against human ether-à-go-go-related gene (hERG) potassium channel (human, UniProt Q12809) (assay: primary screen, population patch clamp on CHO cells stably expressing hERG).
Chain of human ether-à-go-go-related gene (hERG) potassium channel (Q12809 whole entry, looked up): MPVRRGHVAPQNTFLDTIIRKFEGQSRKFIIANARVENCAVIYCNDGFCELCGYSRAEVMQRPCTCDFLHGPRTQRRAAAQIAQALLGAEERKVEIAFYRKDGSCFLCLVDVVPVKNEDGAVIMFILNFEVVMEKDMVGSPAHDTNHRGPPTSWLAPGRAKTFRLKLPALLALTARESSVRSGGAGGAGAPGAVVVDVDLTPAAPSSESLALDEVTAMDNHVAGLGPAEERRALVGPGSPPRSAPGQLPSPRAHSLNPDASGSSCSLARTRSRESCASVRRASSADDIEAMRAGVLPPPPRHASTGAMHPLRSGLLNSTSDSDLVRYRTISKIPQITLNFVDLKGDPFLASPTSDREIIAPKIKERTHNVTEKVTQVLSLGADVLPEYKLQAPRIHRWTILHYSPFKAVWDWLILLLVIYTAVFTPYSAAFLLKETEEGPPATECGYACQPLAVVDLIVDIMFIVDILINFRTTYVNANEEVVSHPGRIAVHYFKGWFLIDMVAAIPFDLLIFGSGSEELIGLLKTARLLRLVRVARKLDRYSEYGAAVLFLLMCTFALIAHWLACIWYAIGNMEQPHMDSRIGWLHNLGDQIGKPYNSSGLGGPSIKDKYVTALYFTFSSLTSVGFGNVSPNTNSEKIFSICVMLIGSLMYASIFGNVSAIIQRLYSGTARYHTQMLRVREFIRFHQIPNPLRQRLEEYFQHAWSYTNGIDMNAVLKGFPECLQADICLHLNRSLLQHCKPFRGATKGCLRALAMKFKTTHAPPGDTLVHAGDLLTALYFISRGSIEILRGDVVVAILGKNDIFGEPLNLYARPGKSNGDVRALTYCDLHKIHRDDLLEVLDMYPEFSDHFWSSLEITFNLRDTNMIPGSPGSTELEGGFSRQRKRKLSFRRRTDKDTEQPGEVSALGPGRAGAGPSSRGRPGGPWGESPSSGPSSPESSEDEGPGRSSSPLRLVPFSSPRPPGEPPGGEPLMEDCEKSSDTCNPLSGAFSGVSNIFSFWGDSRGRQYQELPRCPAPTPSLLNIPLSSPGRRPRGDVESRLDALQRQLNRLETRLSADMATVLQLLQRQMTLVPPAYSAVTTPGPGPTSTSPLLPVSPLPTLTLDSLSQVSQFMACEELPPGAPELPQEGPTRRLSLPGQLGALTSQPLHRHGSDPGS

| Structure (SMILES) | hERG current change (%, negative = inhibition) at 1uM [%] |
| --- | --- |
| OCCn1c(CSc2nc3ccccc3n2CCO)nc2ccccc21 | -0.286 |
| CCn1cc(S(=O)(=O)NC(C)c2cc(OC)ccc2OC)cn1 (stereo not shown) | 3.63 |
| CC(C)C(=O)N1N=C2CCCCC2C1(O)C(F)(F)F (stereo not shown) | 8.65 |
| COc1ccc(NC(=O)C2CCN(S(=O)(=O)c3c(C)noc3C)CC2)cc1Cl | 10.9 |
| COc1cc(CNC2CCCC2)cc(OC)c1OC.Cl | 9.09 |
| COc1cccc(OCC(O)CN2CCN(c3ccccc3)CC2)c1.Cl (stereo not shown) | 0.228 |
| O=C(Nc1cccc(Cl)c1)OCc1cnc(Cl)s1 | 3.86 |
| CCOc1cc(C(=S)N2CCC(O)CC2)ccc1OS(=O)(=O)c1ccc(Br)cc1 | 8.18 |
| Cc1cc(C)n(CCN(C)Cc2cn[nH]c2-c2ccc(F)cc2F)n1 | 5.23 |
| COc1ccc(C(=O)NC(=S)Nc2ccc(Cl)cn2)cc1OC | 11.5 |
| Cc1ccc(SCC(=O)OCC(=O)NC2(C#N)CCCCC2)cc1 | -1.54 |
| COc1ccc(NC(=O)c2ccccc2)cc1NS(=O)(=O)c1ccc(F)cc1 | -0.0034 |
| CN(C)C(=O)COc1ccc(Br)cc1 | 6.59 |
| O=C(Nc1cnn(Cc2c(Cl)cccc2Cl)c1)C(c1ccccc1)c1ccccc1 | 7.45 |
| c1ccc(-c2nnn(C34CC5CC(CC(C5)C3)C4)n2)cc1 | 1.72 |
| O=c1[nH]c2cnccc2n1-c1ccccc1 | 8.23 |
| CCCCn1c(N2CCC(Cc3ccccc3)CC2)nc2c1c(=O)[nH]c(=O)n2C | 2.69 |
| COc1ccc2nc(NC(=O)c3cccnc3SC)sc2c1 | 11.3 |
| CSCCC(N=C1NS(=O)(=O)c2ccccc21)C(=O)N1CCCC(C(N)=O)C1 (stereo not shown) | 12.5 |
| c1ccc(-c2cn3nc(-c4ccccc4)c(-c4ccccc4)nc3n2)cc1 | 7.88 |
| C=CCOc1ccc(/C=C/C(=O)OCc2csc(CC(=O)Nc3ccccc3C)n2)cc1 | 15.3 |
| O=C(NCc1ccc2c(c1)OCO2)C(C(=O)c1ccccc1)n1cc(Cl)ccc1=O (stereo not shown) | 12 |
| Cc1ccccc1-c1nc(CS(=O)(=O)CC(=O)NC2CC2)c(C)o1 | 15.1 |
| CCN(CC(=O)Nc1ccc(OC)cc1)C(=O)Cc1ccsc1 | 2.98 |
| COc1cc(SC)ccc1C(=O)NCCOc1ccc(Cl)cc1 | 2.33 |
